In PubChem BioAssay AID463173 (ICCB-Longwood Screening Facility, Harvard Medical School, 2010):
In all, about 52,000 compounds went through this assay and about 4,300 (8.3%) were called active. Cut-off read from the data, not from the text of the source: active = survival mostly below about 52% (no sharp cut-off); inactive = mostly above about 56%. The list shows a part of the results.

What follows are compounds tested on DeltatarO mutant (assay: S. aureus survival, RN4220 and DeltatarO strains – OD600, teichoic acid synthesis inhibitors, primary screen (AID 463173)). Conditions: S. aureus RN4220 wild type/DeltatarO growth, OD600, 18 h, stronger effect = lower value, screened at 18.75 µg/mL (by protocol).

Row | Structure (SMILES) | survival
1 | CCc1c(C)nc2cc(-c3ccc(OC)c(OC)c3)nn2c1NCC(C)(C)CN(C)C | inactive: 98%
2 | CCOc1ccc(Nc2c(S(=O)(=O)c3ccc(C)cc3)cnc3ccc(OC)cc23)cc1 | inactive: 59%
3 | C/C(=N\NC(=O)CCc1ccccc1)c1cccc(N)c1 | inactive: 102%
4 | COc1cc(C(=O)N2CCC(c3ccncc3)CC2)cc(OC)c1OC | inactive: 88%
5 | COc1cccc(CNC(=O)c2cc(-c3cccs3)nc3ccccc23)c1 | inactive: 66%
6 | COCCCNC(=O)CSc1nc2nc(C)c(Cc3ccccc3Cl)c(C)n2n1 | inactive: 61%
7 | CC(=O)N1CCCc2cc(S(=O)(=O)NCc3ccc(N(C)C)cc3)ccc21 | inactive: 87%
8 | Cc1cc(C)nc(Nc2nc3ccccc3s2)n1 | inactive: 55%
9 | Cc1ccc(C)c(N2CCN(C(=O)C(C)n3nc(C)c4sc5ccccc5c4c3=O)CC2)c1 (stereo unspecified) | inactive: 110%
10 | COc1cccc(-n2cc(C(=O)NCCc3cccc(C)c3)c3ccccc3c2=O)c1 | inactive: 79%
11 | COC(=O)c1ccc(NC(=O)N2CCc3c([nH]c4ccccc34)C2c2ccc(C)cc2)cc1 (stereo unspecified) | inactive: 129%
12 | CC(C)(Oc1ccc(Cl)cc1)C(=O)Nc1ccc(Cl)cn1 | inactive: 72%
13 | CCOc1ccc(NC(=O)CN2C(=O)CCSc3ccc(S(=O)(=O)N4CCCC4)cc32)cc1 | inactive: 80%
14 | COc1ccc(C(c2nnnn2C(C)(C)C)N2CCN(c3ccccc3)CC2)cc1 (stereo unspecified) | inactive: 92%
15 | CSc1ccc(CCNC(=O)c2sc3ncccc3c2-n2cccc2)cc1 | inactive: 93%
16 | O=C(NCC(c1cccnc1)N1CCOCC1)C(=O)Nc1cccc(Cl)c1 (stereo unspecified) | inactive: 78%
17 | CCOc1ccc(NC(=O)CSc2nc3nc(C)c(Cc4ccccc4)c(C)n3n2)cc1 | inactive: 89%
18 | COc1cc(C(=O)NCC(c2ccc(N(C)C)cc2)N2CCCC2)cc(OC)c1OC (stereo unspecified) | inactive: 66%
19 | COc1ccc(/C=C(\C#N)c2nc(-c3ccc(Cl)c(Cl)c3)cs2)cc1OC | inactive: 72%

Row | Structure (SMILES) | survival
20 | CCc1ccc(NC(=O)CSc2nc(=O)n(Cc3cccnc3)c3c2CCC3)cc1 | inactive: 95%
21 | O=C(COc1ccccc1F)NC1CC(=O)N(c2ccc3c(c2)OCCO3)C1 (stereo unspecified) | inactive: 68%
22 | Cc1ccc(-c2nc3ccc(Br)cn3c2Nc2ccc3c(c2)OCO3)o1 | inactive: 71%
23 | CCc1ccccc1NC(=O)CSc1nc2c(oc3ccccc32)c(=O)n1-c1ccccc1 | inactive: 62%
24 | CC(C)c1cc2cc(/C=C/C(=O)O)c(O)cc2o1 | inactive: 60%
25 | COc1ccccc1CNC(=O)C1CCN(c2nn3c(=O)cc(C)nc3s2)CC1 | inactive: 74%
26 | CCC1CCCCN1CCCNC(=O)c1cc2c(Cl)nc3ccc(C)cc3c2s1 (stereo unspecified) | inactive: 67%
27 | CCC1CCCCN1CCCNC(=O)c1ccc2c(c1)N(Cc1cccc(C)c1)C(=O)c1ccccc1S2(=O)=O (stereo unspecified) | inactive: 128%
28 | Cc1c2cnn(CC(=O)NCCc3ccccc3)c(=O)c2c(C)n1Cc1ccccc1Cl | inactive: 81%
29 | COc1ccc(Cn2c(=O)c3oc4ccccc4c3n(CC(=O)Nc3cc(C)cc(C)c3)c2=O)cc1 | inactive: 62%
30 | COc1ccc(S(=O)(=O)n2nc(C)c(S(=O)(=O)N3CCCCCC3)c2C)cc1OC | active: 6%
31 | CCOC(=O)c1c(C)oc2ncnc(NCCCN3CCN(c4cc(C)ccc4C)CC3)c12 | inactive: 101%
32 | COc1ccc(-c2c3c(nc4sc(C(=O)Nc5ccc(F)cc5)c(N)c24)CC(C)(C)CC3=O)cc1 | inactive: 56%
33 | CCCOc1ccc(C(=O)N(Cc2cccs2)c2ccc(C)cc2)cc1 | inactive: 70%
34 | CCOC(=O)c1ccc(NC(=O)C2CCN(C(=O)N3CC(C)Oc4ccc(C)cc43)CC2)cc1 (stereo unspecified) | inactive: 62%
35 | O=C(CCCN1CCOCC1)c1ccc2c(c1)OCCO2 | inactive: 70%
36 | COc1ccccc1N1CCN(C(=O)c2cnn(-c3ccc(C)c(C)c3)c2C2CCN(C(=O)OC(C)(C)C)CC2)CC1 | inactive: 80%
37 | Cc1ccc(N2CCN(C(=O)NCc3noc4ccccc34)CC2C)cc1 (stereo unspecified) | active: 30%
38 | Cc1cccc(C(=O)Nc2ccc(-c3nc4cc(C(C)C)ccc4o3)cc2)c1 | active: 34%

Row | Structure (SMILES) | survival
39 | O=C1CC(c2nnc(Cc3ccc(Cl)cc3)o2)CN1c1ccccc1 (stereo unspecified) | inactive: 124%
40 | CCn1c(=N)c(C(=O)NC2CCCCC2)cc2c(=O)n3cccc(C)c3nc21 | inactive: 143%
41 | O=c1cc2nc(-c3cccs3)nc(SCCOc3ccc(Cl)cc3)n2[nH]1 | inactive: 80%
42 | Cc1ccc(C)c(Cn2c(=O)n(Cc3ccc(C(=O)NC4CCN(Cc5ccccc5)CC4)cc3)c(=O)c3ccccc32)c1 | inactive: 79%
43 | CC(=O)c1cccc(NC(=O)CSc2nnc3ccc(-c4ccc(C)cc4)nn23)c1 | inactive: 82%
44 | O=S(=O)(NCCc1csc2nc(-c3ccc(Cl)cc3)nn12)c1ccc(Oc2ccccc2)cc1 | inactive: 73%
45 | Cc1ccccc1-c1nc(C(N)=O)c2c(n1)n(-c1ccc3c(c1)OCO3)c(=O)n2C | inactive: 63%
46 | Cc1nnc2c(Nc3ccccc3I)nc3nonc3n12 | inactive: 77%
47 | O=C(NCc1ccco1)C1CCN(C(=O)N2CCOc3ccc(Cl)cc32)CC1 | inactive: 50%
48 | CN(C)S(=O)(=O)c1ccc2c(c1)N(CC(=O)NCc1cccc(Br)c1)C(=O)CS2 | inactive: 84%
49 | COc1cccc(CNC(=O)CN2C(=O)CCCc3ccccc32)c1OC | inactive: 102%
50 | CCOc1ccc(OCC)c(NC(=O)C(NS(=O)(=O)c2ccc(Br)s2)c2ccccc2)c1 (stereo unspecified) | inactive: 73%
51 | Cc1ccc(C)c(CN2C(=O)c3ccccc3S(=O)(=O)c3ccc(C(=O)N4CCCC4)cc32)c1 | inactive: 57%
52 | CCc1ccc(NC(=O)c2ccc3oc(=O)n(Cc4ccccc4)c3c2)cc1 | active: 6%
53 | Nc1c(-c2nc(-c3cccs3)no2)nnn1-c1cccc(F)c1 | inactive: 75%
54 | CCN(c1ncnc2c1cnn2-c1cc(Cl)ccc1C)C1CCCCC1 | inactive: 73%
55 | Cc1ccc(O)c(NC(=O)c2noc3c2CCCCC3)c1 | inactive: 59%
56 | COc1cccc(-n2cc(C(=O)Oc3cccc(C(F)(F)F)c3)c3ccccc3c2=O)c1 | inactive: 107%
